# Laboratory results reported in PMC12040169 (PLOS Biology, 2025).
# Some of the results follow.
# Test system: T1, C. trachomatis L2/434/Bu expressing GFP (CTL2-GFP)
# T1 construct: L2/434/Bu GFP intracellular growth in HeLa cells
# Design: species or system HeLa; C. trachomatis total inclusion area by high-content imaging, normalised to DMSO
# Settings: total inclusion area; 28.5 h, 10 µM; inhibitor
# Method in brief: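 Bulk GFP and resorufin signals were read first. Wells were then fixed, stained with Hoechst and imaged to detect GFP inclusions and host nuclei. MICs followed the previously described calculation.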
row,Compound,% of control remaining
1,COC(=O)COc1ccc2cccc(-n3cnnn3)c2c1 [CBK270173],105.457
2,COc1ccc(C(=O)N2C[C@@H]3C[C@H](C2)c2ccc(-c4cccnc4)c(=O)n2C3)cc1 [CBK289182],88.9486
3,CC(C)(C)c1nnc(NCc2ccccc2)s1 [CBK074922],54.9405
4,Cc1cc(C(=O)N2CCCC2c2ccc[nH]2)c2c(C)noc2n1 (stereo not drawn) [CBK305245],63.5581
5,Cc1ccc(C(C)C)cc1OCC(=O)N/N=C\c1cc([N+](=O)[O-])ccc1O [CBK261206],83.8772
6,CCOC(=O)CN1CCCN(c2nccc(OCC3COc4ccccc4O3)n2)CC1 (stereo not drawn) [CBK083975],73.288
7,CCn1nc(C)c(C(C)NC(=O)c2c3c(nn2CC)CCCC3)c1C (stereo not drawn) [CBK282077],91.6685
8,CN(C)S(=O)(=O)N1CCN(c2ccnc3cc(Cl)ccc23)CC1 [CBK269785],93.3615
9,O=C(O)c1ccc(CNC(=S)NCC2CCCO2)cc1 (stereo not drawn) [CBK266908],90.6691
10,CCNC(=O)Nc1ccc2c(-c3cccc(C(F)(F)F)c3)ccnc2n1 [CBK070678],104.157
11,COC(=O)C1(Cc2cc(-c3ccccc3F)no2)CCOCC1 [CBK285182],93.3133
12,COc1ccc(NC(=O)c2c(C)[nH]c(=O)[nH]c2=S)cc1OC [CBK115517],110.4
13,O=C(O)CSc1nc2cc(Cl)c(Cl)cc2nc1N1CCCC1 [CBK107863],96.3892
14,CN1CCC(Cc2nc(CC3CCCOC3)n(CC(F)(F)F)n2)CC1 (stereo not drawn) [CBK306801],89.4432
15,O=C1N/C(=N\c2ccccn2)SC1Cc1ccc(Br)cc1 (stereo not drawn) [CBK263109],102.722
16,Nc1ccc(NC(=O)c2ccc(NC(=O)c3cnc(-c4ccccc4)c(-c4ccncc4)c3)cc2)cc1 [CBK037463],86.7528
17,COc1ccccc1N1CCN(C(=O)c2snnc2C)CC1 [CBK057792],59.9902
18,C=CCNC(=O)c1cc(Br)cnc1NCC1CC1 [CBK076424],125.203
19,O=C(NC1CC1)c1ccc(-c2cnc3[nH]c(=O)n(CC4CCOCC4)c3n2)cc1 [CBK064890],112.327
20,O=C(c1cc(S(=O)(=O)N2CCCCC2)c(Cl)cc1N1CCOCC1)N1CCOCC1 [CBK263400],63.9882
21,O=C(COc1ccccc1)N1CCC(Oc2nccnc2OCc2ccc(Cl)c(Cl)c2)CC1 [CBK160718],74.6972
22,COCCCOc1nc2ccccc2nc1C(F)(F)F [CBK115803],88.1071
23,O=C(O)C(Cc1cc2ccccc2[nH]1)N1C(=O)C2CC=C(Cl)CC2C1=O (stereo not drawn) [CBK266216],107.748
24,O=C(c1cc(C(F)(F)F)cc(C(F)(F)F)c1)N1CCC(O)(c2ccc(Cl)cc2)CC1 [CBK061972],95.5603
25,Cc1nc2nc(N)nn2c(C)c1CCC(=O)NCc1ccccc1F [CBK305860],23.8038
26,O=C(c1ccco1)N1CCC(c2onc3c2CCCCC3)CC1 [CBK284486],94.5722

row,Compound,% of control remaining
1,O=C1NCCNC(=O)C2(C/C=C/COc3ccccc31)CCCN(Cc1cscn1)C2 (stereo not drawn) [CBK292125],92.3339
2,COc1ccc(C(=O)N2CC[C@H]3CC(=O)N(CCN4CCNC4=O)CC[C@H]3C2)cc1 [CBK288795],78.9029
3,CN1C[C@H](C(N)=O)[C@@H](c2ccc(CN(C)C(=O)c3cccc(Oc4ccccc4)c3)cc2)C1 [CBK285572],101.465
4,CC(C)(CNC(=O)c1ccc(=O)n(CC(=O)NC2CCCCC2)c1)c1ccccc1F [CBK285983],96.7224
5,O=C(CSc1ncnc2sc3c(c12)CCC3)Nc1nsc(-c2ccc(Cl)cc2)n1 [CBK266484],86.5153
6,CCn1cc(S(=O)(=O)N2CCN(c3cccc(C(F)(F)F)c3)CC2)cn1 [CBK270328],99.5105
7,Cc1c(Cl)cccc1S(=O)(=O)NC1=NC(=O)C(CC(=O)Nc2ccccc2Cl)S1 (stereo not drawn) [CBK200043],96.4301
8,CCOC(=O)c1[nH]c2ccccc2c1NC(=O)COc1ccc(Cl)cc1Cl [CBK160134],87.7193
9,CCOC(=O)c1[nH]c(=O)[nH]c1CSc1ccccn1 [CBK027725],131.544
10,Cc1ccc(NC(=O)CSc2cnn[nH]2)cc1 [CBK270136],91.9979
11,O=C(O)c1ccc2c(c1)C(=O)N(c1cccc(/C=C/C(=O)c3cccc(N4C(=O)c5ccc(C(=O)O)cc5C4=O)c3)c1)C2=O [CBK261178],98.406
12,COc1ccccc1-n1nc(-c2ccncc2)nc1C1CCOCC1 [CBK307229],88.2002
13,CC(C)C(=O)Nc1ccc2[nH]cc(C(C(=O)O)N3CCN(c4ccccc4)CC3)c2c1 (stereo not drawn) [CBK286645],101.851
14,CN(CCN(C)C(=O)c1cc2sccc2[nH]1)CC(F)F [CBK306014],117.929
15,O=C(Nc1ccc(F)cc1)c1cccc(NS(=O)(=O)c2cc(Br)c(Cl)s2)c1 [CBK050410],111.941
16,O=C(NCCc1c[nH]cn1)N1CCN(Cc2ccccc2)CC1 [CBK155629],94.86
17,O=C(c1ccc(-c2cncc(-c3ccc(O)cc3)n2)cc1Cl)N1CCOCC1 [CBK123790],93.6935
18,CCC(CN1CCN(C)CC1)NC(=O)C1(c2cccc(F)c2)CC1 (stereo not drawn) [CBK282786],75.5577
19,OCCN1CCN(CC(O)COCc2ccccc2)CC1 (stereo not drawn) [CBK278262C],81.8396
20,O=C1NC2(CCc3ccccc31)CCN(Cc1ccncc1)C2 (stereo not drawn) [CBK284610],64.7795
21,O=C1/C(=N\Nc2ccc([N+](=O)[O-])cc2[N+](=O)[O-])c2cc(Br)ccc2N1CN1CCCCC1 [CBK260927],79.7681
22,CC(C)Cc1ccc(-c2cc(NCCc3ccccn3)ncn2)cc1 [CBK091088],83.013
23,CC(=O)N1CCN(C(=O)NC(C)C)C[C@@H]1C(=O)N[C@@H](CC1CCCCC1)C(N)=O [CBK289633],110.498
24,O=C(O)c1ccc2c(c1)C(=O)N(CCCN1CCOCC1)C2=O [CBK269245],117.702
25,COc1ccc2c(c1)C1(CC(=O)N(C)C1=O)C(=O)N2CCCC(=O)O (stereo not drawn) [CBK076109],105.557
26,COc1ccc(S(=O)(=O)N(Cc2cc(F)cc(F)c2)C2CCNCC2)cc1 [CBK165292T],74.0327

row,Compound,% of control remaining
1,COCCN(C)S(=O)(=O)c1cc(C)c(Cl)cc1C [CBK043867],103.666
2,CS(=O)(=O)N1CC2(CCN(Cc3ccc(OC(F)(F)F)cc3)CC2)c2ccccc21 [CBK126668],81.5394
3,CN(CCCC(=O)O)c1nc(-c2ccc(Br)cc2)cs1 [CBK299834],62.23
4,O=C(O)c1[nH]c2ccccc2c1/C=N/Cc1ccccc1Cl [CBK294456],105.088
5,CN1CCN(C(=S)c2ccc(OCC(=O)Nc3cccc(C(F)(F)F)c3)cc2)CC1 [CBK266826],88.54
6,Clc1ccc(OCc2nc3ccccc3n2CCOc2ccccc2)c(Cl)c1 [CBK264728],104.065
7,COC(=O)c1ccc(/C=N/N=C2\NC(=O)C(CC(=O)Nc3ccccc3)S2)cc1 (stereo not drawn) [CBK264483],106.649
8,CC(=O)N1CCc2c(sc(NC(=O)c3ccc(N(C)C)cc3)c2C#N)C1 [CBK304333],23.5877
9,CC(C)c1ccc(NC(=O)O[C@@H]2CO[C@H]3[C@@H]2OC[C@@H]3NC(=O)C2CC2)cc1 [CBK289471],120.365
10,COC(=O)CCc1ccc(S(=O)(=O)N2CCCN(Cc3cccc4c3OCO4)CC2)cc1 [CBK062993],63.4392
11,Cc1cccc(OCCCn2cncc2-c2cnn(C)c2)c1 [CBK281763],103.555
12,Cc1cc(C)n(-c2ccc(C(=O)NCC3(C)COC3)cc2)n1 [CBK281756],99.0785
13,O=C(Nc1ccc(NC(=O)c2ccccc2O)cc1)c1cnc(-c2ccccc2)c(-c2ccncc2)c1 [CBK037490],69.6479
14,c1cn(CC2(Cn3ccnc3)COC2)cn1 [CBK021839],4.192
15,O=C(O)c1ccc(C(=O)NC2CCN(CC(F)(F)F)C2=O)s1 (stereo not drawn) [CBK305524],100.082
16,O=C1c2ccccc2C(=O)N1CCCc1nc2c3c4c(sc3ncn2n1)CCCCC4 [CBK268540],124.468
17,O=P(O)(CCc1ccncc1)CN1CCCCC1 [CBK262323],89.8842
18,NC(=O)CN1CCC2(CCN(C(=O)c3cc(F)c(F)cc3F)C2)C1 (stereo not drawn) [CBK132140],99.5996
19,CCOC(=O)CN(C)Cc1ccccc1Br [CBK261891],95.7031
20,CCCCc1ccc(S(=O)(=O)n2ccc3c(N4CCNCC4)cccc32)cc1 [CBK003744C],43.0065
21,CCC1CCCCN1C(=O)c1ccc(NC2CC2)nc1 (stereo not drawn) [CBK304815],73.4345
22,Cc1ccc(-n2ncc3c(NCCc4ccc(S(N)(=O)=O)cc4)ncnc32)c(C)c1 [CBK265676],106.434
23,CN1CCN(c2ccc(NC(=O)c3cc([N+](=O)[O-])ccc3N3CCOCC3)cc2)CC1 [CBK269425],106.8
24,COC(=O)c1c(NC(=S)NCCn2cc(Br)cn2)sc2c1CCC2 [CBK266905],120.145
25,O=C(NCCc1cccs1)Nc1ccc(F)c(F)c1F [CBK044543],90.6784
26,Cc1nn(C)c(C(=O)NNC(=S)Nc2ccc(S(N)(=O)=O)cc2)c1Br [CBK266963],127.01
